The supplement of paper PMC3334620
In all, about 33,000 sequences were measured (“E-score (-0.5 to 0.5)”: median about -0.012, highest 2% from about 0.29 on). Some of the results follow.

Molecular target: T1, Ybr033w (UniProt P38073)
T1 sequence: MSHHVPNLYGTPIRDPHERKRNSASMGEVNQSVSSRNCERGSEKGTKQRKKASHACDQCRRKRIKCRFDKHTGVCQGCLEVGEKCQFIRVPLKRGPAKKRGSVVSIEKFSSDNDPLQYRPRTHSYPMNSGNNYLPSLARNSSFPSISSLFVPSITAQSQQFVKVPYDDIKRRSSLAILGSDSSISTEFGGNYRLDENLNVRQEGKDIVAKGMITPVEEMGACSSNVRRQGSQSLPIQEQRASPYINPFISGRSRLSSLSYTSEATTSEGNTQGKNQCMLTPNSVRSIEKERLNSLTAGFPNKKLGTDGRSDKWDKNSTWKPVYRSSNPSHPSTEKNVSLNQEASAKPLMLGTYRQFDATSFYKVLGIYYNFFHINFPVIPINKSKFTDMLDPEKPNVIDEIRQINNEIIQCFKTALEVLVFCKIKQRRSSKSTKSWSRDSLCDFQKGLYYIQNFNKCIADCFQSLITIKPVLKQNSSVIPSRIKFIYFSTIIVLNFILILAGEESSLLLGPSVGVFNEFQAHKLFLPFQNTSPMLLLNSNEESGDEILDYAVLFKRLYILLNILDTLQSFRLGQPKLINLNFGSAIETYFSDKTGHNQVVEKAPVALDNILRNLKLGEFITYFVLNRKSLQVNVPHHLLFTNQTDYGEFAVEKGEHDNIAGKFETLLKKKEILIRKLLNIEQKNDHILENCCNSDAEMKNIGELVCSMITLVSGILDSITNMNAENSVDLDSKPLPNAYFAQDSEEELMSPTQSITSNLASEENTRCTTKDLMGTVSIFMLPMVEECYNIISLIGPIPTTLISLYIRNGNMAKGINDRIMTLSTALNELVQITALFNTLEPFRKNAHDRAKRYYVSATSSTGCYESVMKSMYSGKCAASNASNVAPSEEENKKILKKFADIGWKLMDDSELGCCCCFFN
Assay: PBM E-score (8-mer binding enrichment) (E-score (-0.5 to 0.5)); higher = stronger / more preferred TF binding; most listed sequences are background and not binding sites
Conditions: protein concentration: 200 nM; construct: GST-full length
Summary of the method: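 Universal all-10-mer Agilent arrays, double-stranded by primer extension on fresh or once-stripped slides, were probed with about 100-200 nM GST-tagged yeast transcription factors made by PURExpress. Fluorescent anti-GST detected bound protein, and masliner normalised the scans. E-scores from the Universal PBM Analysis Suite were given to each ungapped eight-base word pooled with its reverse complement.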

Sequence	PBM E-score
AAAAGTAC	0.103
ACCCCTTG	-0.326
ACTAGTTC	-0.0183
CCAGATTA	0.18
ATGTTACA	0.225
ATATACAG	0.277
ATAGATGA	0.0723
ATCCTTAC	0.196
CAGAGCCA	0.00866
AGGCTTTA	-0.0897
CGGGCAAA	-0.102
ACACGGAA	0.121
AACCTACG	0.0746
CAATATGG	0.0471
CTCGACAA	0.022
GTTTTGGA	0.196
ACCCGTGG	-0.317
ATCGATAA	0.12
GTTGTTAA	0.267
GCTATAAA	0.138
CTTAGCAC	0.0352
TATGGAGA	-0.0459
CCTGAATC	0.108
AGGTACCT	-0.31
GAATGATC	0.188

Sequence	PBM E-score
CGTTCGTA	0.122
ACGTACCG	0.0138
CGTAAGAG	-0.141
ACCATACA	0.00754
GCTAAGAA	-0.0778
AGCATCGG	-0.0752
CGTTAGCA	0.0776
GGTTTCCA	-0.241
GACGAAAA	0.25
CTTAGCCC	-0.207
AGGATCTG	-0.161
AGCCGGCT	0.0153
ACTGCTAC	0.0898
AGTTAGTA	0.137
AAGTTTAT	0.333
AGGTGCAC	0.00149
GCATAGCA	0.0192
GACCTTGC	-0.24
AGATCATA	0.183
CCGCAAGA	0.0615
ACAGAAAA	0.144
AAACTCCT	0.0225
AATATAGA	0.266
CACCCATG	-0.168
AAAGGCAA	0.256

Sequence	PBM E-score
ATTCGCAA	0.157
CACTACTA	0.094
GGGGTCTA	-0.152
GTATCCCA	-0.109
ACCGTTAC	0.00116
CACTCTAA	0.0188
GGGAATTA	0.193
GACGCCTC	-0.105
CATTATAG	0.0672
GCAGTTAC	0.101
CGAATGAC	0.205
GTAAAGAA	0.224
CATTTAAG	-0.0522
AAGAAGGC	-0.0748
CGTAGCTC	-0.0764
TCGATTCA	0.104
CCTCATCA	-0.201
ATCTCTCG	-0.0856
GTTACAGA	0.0764
ATACGAAT	0.111
CCCACGCC	-0.294
CATTTGGC	0.0321
ACGCCTGA	0.0794
GTGACTTA	0.00446
AAGGTAAG	0.0175

Sequence	PBM E-score
TATGCGCA	-0.0585
ATGACTTC	0.0904
GACGGCAA	-0.0655
ACTTTCCT	-0.0799
CGCAAGCC	0.0476
TCATGGCA	-0.0755
CGTCGAGC	-0.0726
TAACCCAA	0.128
AGTAAGGA	0.215
CCCAATTC	0.164
CAATCGCG	0.0699
ACGCGACC	-0.208
GGCAGGGA	-0.0124
CAAAGCTG	0.0479
AACCGAGT	-0.106
AAGGTTAT	0.0971
AACTGTTA	0.243
CCTGCGTA	0.029
AGTAGTAC	0.252
CAATAAGC	0.0395
GGCATACC	-0.126
ATATGAGC	-0.0174
AGTGCGTG	-0.048
GCATCGCC	-0.17
ATGAGACA	0.0647

Sequence	PBM E-score
GACCGAAC	-0.0736
GGCAAAGA	-0.0677
AATGGTTC	0.187
GAGTGGCC	-0.258
ACACGTCG	-0.126
CGCGCTGA	-0.0754
AGCAGTCC	-0.182
GACATTCA	0.0222
TTACTGAA	0.075
GTACACGA	0.107
CCGTATGA	0.0121
ATAGATAC	0.185
CAAAAGGG	0.0226
TCTGCTCA	-0.113
GAAAAGAC	0.126
CGCCTTAC	-0.16
GACAAATC	0.24
CTAAGACA	0.00154
AGGCCCTG	-0.323
CCGGTTTC	-0.094
GAAAAAAA	0.37
CATTCCCC	-0.00078
ACCATGTC	-0.0544
CGGTTTTA	0.164
CCTAAGCA	-0.0388

Sequence	PBM E-score
CTGCTATA	0.137
GCGTGACA	0.0643
GAAATGCA	0.141
GCGCTGCC	-0.318
CAATCGAG	-0.132
CCGAATTC	0.089
GACATGAC	-0.22
GGTAATTA	0.175
CGACGGCA	-0.247
ATCACGGG	-0.215
AAGCTCTA	-0.139
CGCTGGAA	-0.0114
GGAAGTAA	0.211
AGTTTTTG	0.254
GATTTACA	0.297
GCACCGAC	-0.0638
GAAGCTGA	0.135
CACTACGA	0.00415
GGATTAGA	0.0514
AGATAACG	0.215
GGCAGGAC	-0.204
GAACGACA	0.0254
GCCTCCCA	-0.213
ACGTTGCT	0.159
CACTGTAC	-0.141

Sequence	PBM E-score
CATAATGC	0.0431
CTAAACAG	-0.0126
CCCCGACG	-0.319
CGGTGACA	-0.00129
AACATGTG	0.246
CATAGCAC	0.0654
AACCCGCG	0.0347
CTAAAGAG	-0.0452
CTAGACGC	-0.0917
CGTTACCA	0.0589
CTTATTTC	0.235
ATTACTTA	0.35
CCGTACCA	0.145
GTCATAAC	-0.0815
AGGCCAGA	-0.0584
CCGGTTTA	-0.0643
CCACCGGG	-0.217
CATTTAAA	0.21
GAATCATA	0.147
AAAAGTGC	0.13
CATCACTA	0.197
GACCTGGC	-0.105
GGGATAGA	-0.196
GATGTGCC	-0.123
AACATGGA	0.0231

Sequence	PBM E-score
AAGAAGAC	-0.0526
GGACCGAC	-0.0748
CACAGTGG	0.0184
CCCGATCA	-0.25
AACCCACA	0.103
CAGAATTC	0.232
AGATAGCC	-0.342
CCCGACGC	-0.31
ATCTTCTG	0.125
CGCAGACC	-0.103
CGGCCCTC	-0.308
GGGATCAC	-0.311
AGTAACGG	0.066
AGGAGTAT	-0.00254
CCGATAGC	-0.298
CATCCATA	0.0376
GGGTGTGA	-0.114
CCTCCGCA	-0.201
GCATTGAC	-0.0197
ACAATCGG	0.0552
CACAGGAA	0.15
TACCCATA	-0.0142
GCTAGCAC	-0.0925
ATGCTGGA	-0.0385
AGACAAAA	0.0463

Sequence	PBM E-score
GCTCCTCC	-0.34
CACCGCAA	0.202
AAGTGACA	0.24
GCAGCGGA	-0.0654
GCACTCGC	0.0865
ACTTAGCA	0.00122
CCACCTCA	-0.134
AATCTCAA	0.0508
AACACGAC	0.00288
GGTGTTAC	-0.123
GAGCTTCC	0.0838
AAAATAGC	-0.0427
ACTTTTTC	0.194
CAGCCTCA	-0.24
CGATCGCG	-0.0697
CGTGTTGC	-0.027
AGTAACTG	0.0214
AGCAAACT	0.179
ACGGACAA	0.103
CAAGGGGC	-0.182
ACACAATG	0.238
TAATGACA	0.122
ACATCCGA	-0.00058
AAGACGCG	0.0343
CGGTTCTC	-0.126

Sequence	PBM E-score
CCGCTACG	-0.168
ACCTGTTG	0.13
GAGGCACC	-0.342
ATATTCAC	0.133
GGCGTACA	-0.0865
ACGACTTC	-0.0544
CCACGTCC	-0.223
CACTTATC	0.178
CAATTTAA	0.27
ACTGGTAG	0.018
CTGGGCAA	0.0529
CACACATC	-0.165
TTCAAAAA	0.239
TAAGCTTA	0.102
CAAGCAAA	-0.0607
CCATCTGA	0.0862
TGGAGACA	-0.0605
GTCGGACA	-0.062
TCAGTTAA	0.107
ACTGCATG	0.015
AATAGCCT	0.00241
ACAGCATG	-0.0886
AGGATATA	0.245
GCTTTAGA	-0.0625
CCAGTGTA	-0.0467

Sequence	PBM E-score
GCTTTCTA	0.14
AACTAATT	0.293
CGTCGTTA	-0.0128
CACACAAG	0.0777
GGCGACCA	-0.375
GTAGAACA	-0.199
GGCTGTTA	0.0184
AAAACTGG	0.0511
ACCTCGCC	-0.261
CGAAGCAC	-0.102
TATACATA	0.176
ACAGCACT	0.0697
CGGGACAC	-0.265
CAATGTTA	0.121
GATAACAC	0.089
CAAGAATG	0.135
ACATACAC	0.172
AGGTATCC	-0.0773
ATGGTGAC	-0.0449
AGGGACTA	-0.029
AATTCCCG	0.0788
AATGATGG	0.12
CAGAACTC	-0.0208
CGATAGGC	-0.119
CTTCATCA	0.0846

Sequence	PBM E-score
GCTGACGA	-0.14
CCCGGAGA	0.0405
CGTGAAAA	0.231
GTGCTGCA	0.0439
GGAGGAAA	0.145
GCGTGCGA	-0.0546
ATCAGGGC	-0.147
GCGACGCC	-0.191
CGGGTGAC	-0.214
AACTTCCT	0.0972
CAGTAGAA	-2e-05
CTATTCTA	0.129
AGAATATG	0.229
GCCGTCAC	-0.0864
CACAAGGA	-0.0221
GTTCGAGA	-0.0752
ATAAAGCC	-0.0108
AATTGCGG	0.00918
ACTGGGGG	-0.31
AACGCCGC	-0.168
CCCTATAG	-0.0738
GTAGTAAC	-0.0627
GATCCAAC	0.0935
CGTTTACC	-0.0614
CTGAGCAG	-0.111

Sequence	PBM E-score
CTTACAAC	0.127
AGTGCAAG	0.184
AGCGAGTC	-0.0597
ATGGCCTC	-0.142
AACCGAGC	-0.0626
ACAACGCC	-0.0433
TCAATAGA	0.172
CGGCCGAG	-0.138
CCCCAAGC	-0.0908
GAGAATGC	-0.0204
CCTAGGGA	-0.0964
CACAATTC	0.16
GAGCGCCC	-0.245
TACATAAA	0.259
AATACCCG	0.0839
ATCTTCGA	0.0476
CTGGCAAA	0.0898
GTGCGATA	0.0892
GAGTGTGC	-0.0145
ATGACTGC	-0.0609
TCCTCCAA	-0.0605
CTGAACTC	-0.105
GCGTGAAA	0.0243
ACTCCAAT	0.0629
ATGACTTG	-0.145

Sequence	PBM E-score
ACTATGTA	0.0693
GCCCACGA	-0.12
GCGTGCAA	-0.129
CAGGAAGC	0.00897
AGATGTCC	0.0719
AAGCTGGG	-0.031
AGTGCCAC	-0.299
AAAACCGG	0.178
GAGTAAAA	0.176
ACTAAATG	0.0633
TGGGACCA	-0.208
AGAGCCAA	-0.134
AAAAAACC	0.0982
GCTGGACA	-0.0562
CTCCATAA	-0.0373
CTAAGACC	-0.0691
AAGTGCCG	-0.0901
AGCTATAT	0.192
CGCTGAAA	-0.124
